# Reference: article PMC4336329 (PLoS ONE, 2015)
# Out of some 310,000 compounds screened, about 2,200 (0.71%) showed an effect of 50% or more. The effect is printed as a negative number. Some of the results follow.
# Molecular target: human ether-à-go-go-related gene (hERG) potassium channel (human, UniProt Q12809)
# Experiment: primary screen, population patch clamp on CHO cells stably expressing hERG
# Sequence of human ether-à-go-go-related gene (hERG) potassium channel (Q12809 whole entry, looked up): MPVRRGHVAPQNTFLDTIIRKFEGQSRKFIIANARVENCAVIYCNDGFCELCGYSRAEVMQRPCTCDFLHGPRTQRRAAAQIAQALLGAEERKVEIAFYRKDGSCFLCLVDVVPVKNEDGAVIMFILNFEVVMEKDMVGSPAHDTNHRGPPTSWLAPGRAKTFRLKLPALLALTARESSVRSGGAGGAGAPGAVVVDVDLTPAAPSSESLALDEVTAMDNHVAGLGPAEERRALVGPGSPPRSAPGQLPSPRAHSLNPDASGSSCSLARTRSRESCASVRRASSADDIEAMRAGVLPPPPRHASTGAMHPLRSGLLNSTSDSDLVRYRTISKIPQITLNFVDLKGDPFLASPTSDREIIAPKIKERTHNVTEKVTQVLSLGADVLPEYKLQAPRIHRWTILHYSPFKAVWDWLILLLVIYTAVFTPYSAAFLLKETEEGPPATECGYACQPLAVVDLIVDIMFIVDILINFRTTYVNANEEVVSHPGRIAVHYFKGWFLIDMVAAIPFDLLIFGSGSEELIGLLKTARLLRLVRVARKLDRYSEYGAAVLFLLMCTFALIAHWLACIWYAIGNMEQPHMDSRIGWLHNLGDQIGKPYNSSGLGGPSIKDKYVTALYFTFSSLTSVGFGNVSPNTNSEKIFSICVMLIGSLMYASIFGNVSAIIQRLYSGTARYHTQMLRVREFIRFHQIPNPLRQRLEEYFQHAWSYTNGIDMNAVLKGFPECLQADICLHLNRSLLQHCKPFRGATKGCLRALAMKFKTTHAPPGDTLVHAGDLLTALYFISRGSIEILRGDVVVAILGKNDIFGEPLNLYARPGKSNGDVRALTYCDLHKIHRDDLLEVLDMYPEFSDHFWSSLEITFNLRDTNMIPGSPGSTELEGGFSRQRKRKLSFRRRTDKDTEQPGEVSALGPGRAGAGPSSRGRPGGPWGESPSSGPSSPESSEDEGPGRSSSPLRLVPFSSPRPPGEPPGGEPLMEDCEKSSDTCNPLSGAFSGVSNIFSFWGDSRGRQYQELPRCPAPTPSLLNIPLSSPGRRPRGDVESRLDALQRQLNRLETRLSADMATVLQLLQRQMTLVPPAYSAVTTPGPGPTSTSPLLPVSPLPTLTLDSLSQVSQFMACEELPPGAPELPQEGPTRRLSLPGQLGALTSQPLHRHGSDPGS
row,SMILES,"hERG current change (%, negative = inhibition) at 1uM"
1,O=C(CNC(=O)c1ccc(Br)o1)NNC(=O)c1ccc(Br)cc1,-19.6%
2,Fc1cccc(Cn2cc(C(=S)N3CCOCC3)c3ccccc32)c1,-1.89%
3,CNC(=S)NNC(=O)CSCc1c(Cl)cccc1Cl,17.1%
4,COc1ccc(C(=O)NCC(=O)N2CCc3ccccc3C2)cc1,8.72%
5,NC(=O)c1ccccc1NC(=O)c1cccc(C(=O)Nc2ccccc2C(N)=O)n1,13%
6,CCCC(=O)Nn1cnc2c(c1=O)C1(CCCC1)Cc1ccccc1-2,5.41%
7,O=C1CCCC/C1=C/Nc1ccc(C(=O)O)cc1,-6.63%
8,CCn1c(-c2ccc(C)cc2)n[nH]c1=S,12%
9,CCN(CC)CCN(C(=O)c1cccc([N+](=O)[O-])c1)c1nc2ccc(OC)cc2s1.Cl,-9.58%
10,COc1ccc2c(c1)cc(C(=O)N[C@@H](CCSC)C(=O)N1CCC[C@H]1C(=O)O)n2C,-6.66%
11,Cc1ccc(NC(=S)Nc2cccc3cnccc23)cc1,0.785%
12,Cc1nnc(N/N=C/c2ccc([N+](=O)[O-])cc2)n1N,12%
13,CCCc1ccc(Oc2cc(N3CCOCC3)nc(-c3ccccc3)n2)cc1,15.7%
14,Cc1cc(-n2[nH]c(C)c(C)c2=O)nc(-c2ccccc2O)n1,12.8%
15,Cc1c(C(=O)N2CCOCC2)sc(NC(=O)CCl)c1C#N,6.58%
16,Cc1cccc(N(Cc2nnc3n2CCCCC3)C(=O)Nc2ccccc2)c1,1.47%
17,Cc1cc2ccccc2n1CCNC(=O)Cc1ccccc1,2.53%
18,Oc1c(Cl)cc(CN2CCCCC2)c2cccnc12,13.1%
19,COCCn1c(SCC(=O)N2CCCCC2)nc2ccccc2c1=O,-30.8%
20,CCOc1cccc(CNCCSc2nnnn2C)c1.Cl,13.8%
21,Cc1cc(C)c(C(=O)CSc2nnc(-c3cccnc3)n2C)c(C)c1,-12.5%
22,O=C(OCCCc1cc2ccccc2c(=O)o1)c1ccccc1C(F)(F)F,19.3%
23,COC(=O)C1C(=O)C2=C(CC1C)NC(C)=C(C(=O)OCc1ccc(OC)cc1)C2c1ccc(C)o1 (stereo not shown),0.03%
24,COc1cccc(-c2nc(CS(=O)(=O)CC(=O)NCCc3ccccc3)c(C)o2)c1,7.01%
25,CCOc1ccc(CCNC(=O)CN2C(=O)COc3ccc(S(=O)(=O)N4CCOCC4)cc32)cc1,-8.18%
